Laboratory results reported in the supplement of paper PMC7125110.
± gives the standard error. Variants at the background level are over-represented here.

B1: glmS ribozyme (parent)
chain: AUAAAAGCGCCAGAACUACAGAAAUGUAGUUGACGAGGAGGAGGUUUAUCGAAUUUUCGGCGGAUGCCUCCAAA

What was measured:
Conditions in all cases: with glucosamine-6-phosphate
glucosamine-6-phosphate [1] = variants of: B1; assay: self-cleavage kobs at 40 uM GlcN6P; higher = faster cleavage; RNA array
In short: (§1)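 kobs was derived by fitting per-tile medians to one- or two-exponential decays after normalising signals to baseline and to non-cleaving reference variants. Those signals came from barcoded ribozyme variants transcribed in situ by E. coli RNA polymerase on sequenced MiSeq chips, followed through a hybridised Cy3 probe at 37 °C and imaged over ~14 h. Glucosamine-6-phosphate (40 μM to 10 mM) in HEPES/KCl/Mg(OAc)2 buffer was flowed in. Weighted Michaelis–Menten fits across concentrations then gave kcat and KM.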

glucosamine-6-phosphate [2] = variants of: B1; assay: self-cleavage kobs at 10000 uM GlcN6P; higher = faster cleavage; RNA array
In short: as §1

glucosamine-6-phosphate [3] = variants of: B1; assay: self-cleavage kobs at 160 uM GlcN6P; higher = faster cleavage; RNA array
In short: as §1

glucosamine-6-phosphate [4] = variants of: B1; assay: self-cleavage kobs at 2500 uM GlcN6P; higher = faster cleavage; RNA array
In short: as §1

glucosamine-6-phosphate [5] = variants of: B1; assay: self-cleavage kobs at 640 uM GlcN6P; higher = faster cleavage; RNA array
In short: as §1

Row | Variant | self-cleavage kobs at 40 uM GlcN6P (glucosamine-6-phosphate [1]) [s⁻¹] | self-cleavage kobs at 10000 uM GlcN6P (glucosamine-6-phosphate [2]) [s⁻¹] | self-cleavage kobs at 160 uM GlcN6P (glucosamine-6-phosphate [3]) [s⁻¹] | self-cleavage kobs at 2500 uM GlcN6P (glucosamine-6-phosphate [4]) [s⁻¹] | self-cleavage kobs at 640 uM GlcN6P (glucosamine-6-phosphate [5]) [s⁻¹]
1 | U2C G9C A48G G62A C68U | < 1e-05 |  |  |  | 
2 | A5U C10G A15U G41A A64U | < 1e-05 | < 1e-05 |  |  | 
3 | A6C A12C C71U | < 1e-05 |  |  |  | 
4 | A6C A14C G59U | < 1e-05 |  |  |  | 
5 | A6C A14G C34G U45A C67U C70G | < 1e-05 | < 1e-05 | < 1e-05 |  | 
6 | A6C A14U A53G C71G | < 1e-05 |  |  |  | 
7 | A6C A15C | < 1e-05 |  |  |  | 
8 | A6C A15U G41U A48U G63U | < 1e-05 | < 1e-05 |  |  | 
9 | A6C A33C G41C A52C | < 1e-05 |  |  |  | 
10 | A6C A33C G62U C67U | < 1e-05 |  |  | < 1e-05 | 
11 | A6C A36C | < 1e-05 | < 1e-05 | < 1e-05 |  | 
12 | A6C A39G G41A U46A A64G | < 1e-05 | < 1e-05 |  |  | 
13 | A6C A39U U56A A64G | < 1e-05 |  |  |  | 
14 | A6C A48G C70U | < 1e-05 | < 1e-05 |  |  | 
15 | A6C A52C | < 1e-05 | < 1e-05 | < 1e-05 | < 1e-05 | < 1e-05
16 | A6C A64C | < 1e-05 | < 1e-05 | < 1e-05 | < 1e-05 | < 1e-05
17 | A6C C8A U30G G63U | < 1e-05 | < 1e-05 |  | < 1e-05 | 
18 | A6C C8G A48U U49C G66C | < 1e-05 |  |  | < 1e-05 | < 1e-05
19 | A6C C8U C68A C70A | < 1e-05 |  |  |  | 
20 | A6C C10U | < 1e-05 | < 1e-05 | < 1e-05 | < 1e-05 | < 1e-05
21 | A6C C11G | < 1e-05 | < 1e-05 |  | < 1e-05 | < 1e-05
22 | A6C C16G C71A | < 1e-05 |  |  |  | 
23 | A6C C16U G59U | < 1e-05 | < 1e-05 |  | < 1e-05 | < 1e-05
24 | A6C C34A A42G | < 1e-05 | < 1e-05 |  |  | 
25 | A6C C34A G43U | < 1e-05 | < 1e-05 | < 1e-05 |  | < 1e-05
26 | A6C C34G | < 1e-05 | < 1e-05 |  | < 1e-05 | < 1e-05

Row | Variant | self-cleavage kobs at 40 uM GlcN6P (glucosamine-6-phosphate [1]) [s⁻¹] | self-cleavage kobs at 10000 uM GlcN6P (glucosamine-6-phosphate [2]) [s⁻¹] | self-cleavage kobs at 160 uM GlcN6P (glucosamine-6-phosphate [3]) [s⁻¹] | self-cleavage kobs at 2500 uM GlcN6P (glucosamine-6-phosphate [4]) [s⁻¹] | self-cleavage kobs at 640 uM GlcN6P (glucosamine-6-phosphate [5]) [s⁻¹]
27 | A6C C34U G43A | < 1e-05 |  |  |  | 
28 | A6C C67G | < 1e-05 |  |  |  | 
29 | A6C G7A A64C G66C | < 1e-05 |  |  |  | 
30 | A6C G7U A12U A15U | < 1e-05 | < 1e-05 |  |  | 
31 | A6C G7U A15U U45G A64U C68A | < 1e-05 | < 1e-05 |  |  | 
32 | A6C G7U G44U | < 1e-05 |  |  |  | 
33 | A6C G9A C70A | < 1e-05 |  | < 1e-05 |  | < 1e-05
34 | A6C G13A | < 1e-05 | < 1e-05 | < 1e-05 | < 1e-05 | < 1e-05
35 | A6C G13A A52C | < 1e-05 |  |  |  | 
36 | A6C G13C | < 1e-05 | < 1e-05 | < 1e-05 | < 1e-05 | < 1e-05
37 | A6C G29U G32A U57A | < 1e-05 | < 1e-05 |  |  | < 1e-05
38 | A6C G32A U69A | < 1e-05 |  |  |  | 
39 | A6C G35C | < 1e-05 | < 1e-05 | < 1e-05 | < 1e-05 | < 1e-05
40 | A6C G35U C68G | < 1e-05 |  |  |  | < 1e-05
41 | A6C G35U G38A G43U U54G C67U | < 1e-05 |  |  |  | 
42 | A6C G35U G43A G62U G63C C71U | < 1e-05 | < 1e-05 |  |  | 
43 | A6C G40A U57C | < 1e-05 | < 1e-05 |  |  | 
44 | A6C G41C | < 1e-05 | < 1e-05 |  | < 1e-05 | < 1e-05
45 | A6C G60C | < 1e-05 | < 1e-05 | < 1e-05 | < 1e-05 | 
46 | A6C G60U | < 1e-05 | < 1e-05 | < 1e-05 | < 1e-05 | < 1e-05
47 | A6C G63U | < 1e-05 |  | < 1e-05 | < 1e-05 | < 1e-05
48 | A6C U31G | < 1e-05 | 1.74e-05 ± 5.6e-06 |  |  | 
49 | A6C U45C G63A | < 1e-05 |  |  | < 1e-05 | 
50 | A6C U49A C71A | < 1e-05 | < 1e-05 |  |  | 
51 | A6C U55A | < 1e-05 | 7.27e-05 ± 1.2e-05 | < 1e-05 | 7.01e-05 ± 1.6e-05 | 
52 | A6C U55C | < 1e-05 |  |  |  | 

Row | Variant | self-cleavage kobs at 40 uM GlcN6P (glucosamine-6-phosphate [1]) [s⁻¹] | self-cleavage kobs at 10000 uM GlcN6P (glucosamine-6-phosphate [2]) [s⁻¹] | self-cleavage kobs at 160 uM GlcN6P (glucosamine-6-phosphate [3]) [s⁻¹] | self-cleavage kobs at 2500 uM GlcN6P (glucosamine-6-phosphate [4]) [s⁻¹] | self-cleavage kobs at 640 uM GlcN6P (glucosamine-6-phosphate [5]) [s⁻¹]
53 | A6C U56A C58G | < 1e-05 | < 1e-05 |  |  | 
54 | A6C U56C C70A | < 1e-05 | < 1e-05 |  |  | 
55 | A6G A12C C71A | < 1e-05 |  |  |  | 
56 | A6G A12C G40C G44U | < 1e-05 | < 1e-05 |  |  | < 1e-05
57 | A6G A12G | < 1e-05 |  | < 1e-05 |  | 
58 | A6G A12G A39C U56C | < 1e-05 | < 1e-05 |  | < 1e-05 | 
59 | A6G A12G G13A C50U | < 1e-05 | < 1e-05 |  | < 1e-05 | 
60 | A6G A14C C71A | < 1e-05 |  |  |  | 
61 | A6G A14U G29C G35A G60C | < 1e-05 |  |  | < 1e-05 | < 1e-05
62 | A6G A15G C71U | < 1e-05 |  |  |  | 
63 | A6G A15G G44A | < 1e-05 | < 1e-05 |  | < 1e-05 | < 1e-05
64 | A6G A15U C16G A53G C61G G63A | < 1e-05 |  |  |  | 
65 | A6G A15U U31C G44U C71A | < 1e-05 |  |  |  | 
66 | A6G A36C C71U | < 1e-05 | < 1e-05 |  |  | 
67 | A6G A36C G38C U46A U55C | < 1e-05 |  |  |  | 
68 | A6G A36G | < 1e-05 |  |  |  | < 1e-05
69 | A6G A39G A52C | < 1e-05 |  |  |  | 
70 | A6G A39G G60U A64U | < 1e-05 |  |  |  | 
71 | A6G A42C C71U | < 1e-05 |  |  |  | < 1e-05
72 | A6G A42G G51A A52U | < 1e-05 | < 1e-05 |  |  | 
73 | A6G A53C | < 1e-05 |  | < 1e-05 |  | 
74 | A6G A53U | < 1e-05 |  |  |  | 
75 | A6G A64U G66A | < 1e-05 | < 1e-05 | < 1e-05 |  | < 1e-05
76 | A6G C8G C16G U31C G37C | < 1e-05 |  |  |  | 
77 | A6G C8G G13U | < 1e-05 |  |  |  | 
78 | A6G C8U G35C A48G | < 1e-05 | < 1e-05 |  |  | 

Row | Variant | self-cleavage kobs at 40 uM GlcN6P (glucosamine-6-phosphate [1]) [s⁻¹] | self-cleavage kobs at 10000 uM GlcN6P (glucosamine-6-phosphate [2]) [s⁻¹] | self-cleavage kobs at 160 uM GlcN6P (glucosamine-6-phosphate [3]) [s⁻¹] | self-cleavage kobs at 2500 uM GlcN6P (glucosamine-6-phosphate [4]) [s⁻¹] | self-cleavage kobs at 640 uM GlcN6P (glucosamine-6-phosphate [5]) [s⁻¹]
79 | A6G C8U U54G C68G | 0.000149 ± 5.2e-05 | 7.88e-05 ± 2.2e-05 |  |  | 0.000705 ± 0.00028
80 | A6G C10A G13A G62A U65A | < 1e-05 |  |  |  | 
81 | A6G C10U A39U | < 1e-05 | < 1e-05 | < 1e-05 | < 1e-05 | 
82 | A6G C11G A42U | < 1e-05 | < 1e-05 |  | < 1e-05 | 
83 | A6G C11U G32U U47A A52G C68G | < 1e-05 |  |  | < 1e-05 | 
84 | A6G C16A U55C A64C | < 1e-05 |  |  | < 1e-05 | 
85 | A6G C34G | < 1e-05 | < 1e-05 |  |  | < 1e-05
86 | A6G C50A | < 1e-05 |  | < 1e-05 |  | < 1e-05
87 | A6G C50G A64U | 7.9e-05 ± 3.2e-05 | 0.000157 ± 2.5e-05 |  |  | 
88 | A6G C50G C58G | 0.000111 ± 2.7e-05 |  | 0.000451 ± 0.0001 |  | 
89 | A6G C58G | < 1e-05 | < 1e-05 | < 1e-05 | < 1e-05 | < 1e-05
90 | A6G C58U | < 1e-05 | < 1e-05 | < 1e-05 | < 1e-05 | < 1e-05
91 | A6G C67A C68U | < 1e-05 |  |  |  | 
92 | A6G C67G | < 1e-05 |  | < 1e-05 | < 1e-05 | 
93 | A6G C68A | < 1e-05 | < 1e-05 | < 1e-05 | < 1e-05 | < 1e-05
94 | A6G C71U | < 1e-05 |  |  |  | 
95 | A6G G7A A33G C34U A48C | < 1e-05 |  |  |  | 
96 | A6G G7C | < 1e-05 |  |  |  | 
97 | A6G G9U C11G C68U | < 1e-05 |  |  |  | 
98 | A6G G13C | < 1e-05 | < 1e-05 | < 1e-05 | < 1e-05 | < 1e-05
99 | A6G G13U G35A C50U A53C | < 1e-05 |  |  |  | 
100 | A6G G29U | < 1e-05 |  | < 1e-05 |  | 
101 | A6G G32C | < 1e-05 | < 1e-05 | < 1e-05 |  | < 1e-05
102 | A6G G32U U46G | < 1e-05 | < 1e-05 |  |  | 
103 | A6G G32U U49C | < 1e-05 | < 1e-05 | < 1e-05 | < 1e-05 | < 1e-05
